According to patent US8815842B2 (priority 2006, dated 2014):

Settings: 1% T-1105 compounded feed for pigs, 24 hours
Description: 30 g of T-1105 was mixed with 2970 g of commercially available feeds for pigs (JA ZEN-NOH) to obtain 3000 g of 1% T-1105 compounded feed.

## NC(=O)c1nccnc1O [T-1105, 3-oxo-3,4-dihydro-2-pyrazinecarboxamide]
  stability in compounded feed: stable without being degraded
